Experimental data as given in the supplement of paper PMC12645437, “Orthogonal IMiD-Degron Pairs Induce Selective Protein Degradation in Cells” (ACS Chemical Biology, 2025).
The other results are listed elsewhere or left out.

What follows are sequences tested against no compound (DMSO) (assay: log2 fold change of degron read counts, EGFP-low vs EGFP+ sorted cells; higher = lower degron-EGFP level without compound (poor expression or instability)). Settings: compound: DMSO control; 18 h.
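Further: jurkat cells carrying a lentiviral library of mutant zinc finger degrons fused to EGFP plus mCherry, mCherry+ cells FACS sorted, degron abundance counted by next-generation sequencing.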

| Sequence | log2 fold change of degron read counts |
| --- | --- |
| FNCSVCGHTFTQKGNLLRHIKL | -0.226 |
| FYCPQCGAGFTQKGNLLRHIKL | -0.456 |
| FRCEICGHNFTQKGNLLRHIKL | -1.08 |
| FQCPVCGACFTQKGNLLRHIKL | -0.169 |
| FNCSVCGHSFTQKGNLLRHIKL | -0.652 |
| FICDQCGACFTQKGNLLRHIKL | -2.67 |
| LYCPICGFQCTQKGNLLRHIKL | 0.844 |
| FTCDVCGAFFTQKGNLLRHIKL | -1.01 |
| FVCNQCGAYFTQKGNLLRHIKL | -0.151 |
| FCCPICGHAFTQKGNLLRHIKL | -0.0166 |
| FKCDQCGAAFTQKGNLLRHIKL | -2.73 |
| FYCPVCGAEFTQKGNLLRHIKL | 0.0409 |
| LDCNQCGFNCTQKGNLLRHIKL | 0.173 |
| FTCEICGRKFTQKGNLLRHIKL | -1.53 |
| FCCDVCGAQFTQKGNLLRHIKL | -1.38 |
| FTCNQCGHVFTQKGNLLRHIKL | -0.935 |
| FSCPVCGAGFTQKGNLLRHIKL | -0.698 |
| FSCNQCGHNFTQKGNLLRHIKL | 0.127 |
| FSCPVCGAAFTQKGNLLRHIKL | 0.18 |
| FHCNVCGAEFTQKGNLLRHIKL | -1.98 |
| LMCEICGFYCTQKGNLLRHIKL | 0.848 |
| FHCPICGAVFTQKGNLLRHIKL | -0.319 |
| FSCPQCGANFTQKGNLLRHIKL | -0.656 |
| FLCNICGACFTQKGNLLRHIKL | -1.07 |
| FGCPICGRIFTQKGNLLRHIKL | 0.685 |

| Sequence | log2 fold change of degron read counts |
| --- | --- |
| FECNVCGATFTQKGNLLRHIKL | -1.26 |
| FACPVCGACFTQKGNLLRHIKL | -0.0038 |
| FICPICGHWFTQKGNLLRHIKL | -0.0911 |
| FMCNQCGHMFTQKGNLLRHIKL | 0.312 |
| FCCNVCGAMFTQKGNLLRHIKL | -0.191 |
| LRCNQCGFWCTQKGNLLRHIKL | 1.86 |
| FLCNQCGRAFTQKGNLLRHIKL | -0.576 |
| FLCPICGHLFTQKGNLLRHIKL | 0.448 |
| FICDVCGAVFTQKGNLLRHIKL | -1.01 |
| FFCNICGATFTQKGNLLRHIKL | -0.0356 |
| FGCEICGRYFTQKGNLLRHIKL | -0.416 |
| FYCPICGAWFTQKGNLLRHIKL | 0.979 |
| FGCEQCGAVFTQKGNLLRHIKL | -0.755 |
| LICNQCGFQCTQKGNLLRHIKL | -0.456 |
| FMCPICGRPFTQKGNLLRHIKL | -0.52 |
| FNCEICGRVFTQKGNLLRHIKL | -0.714 |
| LGCNQCGFDCTQKGNLLRHIKL | 0.46 |
| FRCNQCGAIFTQKGNLLRHIKL | 0.429 |
| FMCDQCGARFTQKGNLLRHIKL | -1.81 |
| FWCPICGRQFTQKGNLLRHIKL | 0.486 |
| FHCNVCGAYFTQKGNLLRHIKL | 0.177 |
| FCCPQCGAFFTQKGNLLRHIKL | 0.0128 |
| FHCDQCGASFTQKGNLLRHIKL | -1.61 |
| FFCNQCGHFFTQKGNLLRHIKL | 1.2 |
| FMCPICGHDFTQKGNLLRHIKL | -0.0662 |
